# Hit rate of the full screen: of about 420,000 compounds, about 64,000 (15%) were called active. Inconclusive results, whose numbers are uncertain, are shown with a selection of clear calls. Calls come from the whole dose curve; as a rule, active = well fitted inhibition curve with a large enough effect; inconclusive = small, poorly fitted or top-dose-only effect; inactive = flat fitted curve, though single readings scatter. Potencies of inconclusive entries are left out as doubtful fits.
# Assay: qHTS for Inhibitors of human tyrosyl-DNA phosphodiesterase 1 (TDP1): qHTS in cells in absence of CPT; note: nearly all actives have a fitted effect of over 55% in size
# Conditions: DT40 Tdp1-/- hTDP1 cells, no CPT, ATP luminescence, 48 h; series mostly up to 46.2 µM
# Summary of the method: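 Stably hTDP1-transfected Tdp1-null chicken DT40 cells were treated with library compounds minus camptothecin and grown for at least 48 hr at 37 °C, after which cellular ATP was quantified by luminescence.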
# Potency is the fitted concentration of half-maximal effect; tags give direction and shape of the fitted curve.
row,Compound,Potency
1,CCc1nc(SC)ncc1C(=O)N1CCN(c2cc(C)ccc2C)CC1,active: 14.6 µM
2,COc1ccc(/C=N/NC(=O)c2cc(-c3ccccc3OC)nc3ccccc23)cc1COC(C)=O,active: 14.1 µM
3,Cc1ccsc1C(=O)Nc1ccccc1N1CCOCC1,"inconclusive [inhibitor, partial curve]"
4,COc1ccccc1CC(=O)N(Cc1ccccc1)c1cccc(C)c1,"inconclusive [inhibitor, single point]"
5,Cc1ccc(S(=O)(=O)NC(C)C(c2cccs2)N2CCN(c3ccccc3)CC2)cc1 (stereo unspecified),"inconclusive [inhibitor, single point]"
6,CCCn1c(NCc2cccs2)nc2ccccc21,"inconclusive [inhibitor, partial curve, poor fit]"
7,COc1ccc(Cl)cc1NC(=O)CN1CCN(S(=O)(=O)N2CCC(C)CC2)CC1,"inconclusive [inhibitor, single point]"
8,O=C(NCCc1c[nH]c2ccccc12)/C(=C/c1cccnc1)NC(=O)c1ccco1,inactive
9,COc1ccccc1-c1nnc(NC(=O)c2ccc(S(=O)(=O)N3CCOCC3)cc2)o1,"inconclusive [inhibitor, single point]"
10,CCN(c1ccccc1)S(=O)(=O)c1ccc(Cl)c(C(=O)Nc2ccncc2)c1,active: 11.6 µM
11,C[C@@H](C(=O)NCc1c(F)cccc1Cl)N1C(=O)N2CCc3c([nH]c4ccccc34)[C@@]2(C)C1=O,active: 20.6 µM
12,O=C(COc1ccccc1)Nc1ccc2c(c1)nc1n2CCSC1,"inconclusive [inhibitor, single point]"
13,Cc1ccc(S(=O)(=O)NC(=O)N2CCCC2)cc1,inactive
14,CCN(CC)S(=O)(=O)c1ccc(C(=O)N2CCN=C2SCc2cccnc2)cc1,inactive
15,CC(=O)Nc1nc2ccc(Br)cc2s1,"inconclusive [inhibitor, partial curve]"
16,C=CCn1c(=O)c(C(=O)NCCc2ccc(Cl)cc2)c(O)c2cc(OC)c(OC)cc21,inactive
17,COc1ccccc1CN1CCNC(=O)C1CC(=O)NC1CCCCCC1 (stereo unspecified),inactive
18,CC(=O)NC(C(=O)c1ccccc1)C(=O)c1ccccc1,inactive
19,CSc1nncc(=O)[nH]1,active: 23.1 µM
20,COc1cc(/C=C2/SC(=S)N(CC(=O)NC(C)(C)C)C2=O)cc(OC)c1OC,"inconclusive [inhibitor, partial curve]"
21,O=c1c(CCc2ccccc2)nc2cncnc2n1Cc1ccc(F)cc1,"inconclusive [inhibitor, single point]"

# Reference: PubChem BioAssay AID686978 (National Center for Advancing Translational Sciences (NCATS), 2013)
